These results are taken from patent US20210363269A1 (ALX ONCOLOGY, published 2021).

For assay [1], the target named is T1, human SIRPγ isoform 1 (human, UniProt Q9P1W8 29-147).
T1 construct: also called SIRPg; sirpg
As to the kind of experiment: SPR, Langmuir fit. In outline: (§1)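 Pre-filtered culture media supplied the scFv-Fc antibody clones, which were captured by anti-human IgG Fc amine-coupled (about 4000 RU) to a GLC chip on a ProteOn XPR36. SIRP analytes were flowed in PBS pH 7.4 with 0.01% Tween-20 at 25° C. Interspot and buffer-blank responses were subtracted from the data, which were then fitted to a 1:1 Langmuir model. Dissociation rate constants (koff) were derived from this fitting.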

The target of assay [2] is T2, cynomolgus SIRP-α D1 domain (cyno2) (cynomolgus monkey, UniProt Q5TFQ8 30-148 (human entry), limits assumed).
T2 chain: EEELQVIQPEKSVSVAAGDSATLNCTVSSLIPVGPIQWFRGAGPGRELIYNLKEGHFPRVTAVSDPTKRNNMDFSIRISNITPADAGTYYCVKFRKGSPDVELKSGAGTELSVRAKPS
As to the kind of experiment: SPR, Langmuir fit. In outline:
as §1

Assay [3] addresses T3, high affinity SIRP-α D1 variant CV1-3.
T3 chain: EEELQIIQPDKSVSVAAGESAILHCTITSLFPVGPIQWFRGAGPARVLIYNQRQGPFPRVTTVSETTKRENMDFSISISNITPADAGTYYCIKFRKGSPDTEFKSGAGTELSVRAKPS
As to the kind of experiment: SPR, Langmuir fit. In outline:
as §1

Assay [4] addresses T4, cynomolgus SIRP-α D1 domain (cyno1) (cynomolgus monkey, UniProt Q5TFQ8 30-148 (human entry), limits assumed).
T4 chain: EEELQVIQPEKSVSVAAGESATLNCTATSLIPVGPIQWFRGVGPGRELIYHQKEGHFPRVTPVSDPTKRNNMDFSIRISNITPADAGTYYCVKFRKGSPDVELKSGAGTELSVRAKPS
The experiment in a line: SPR, Langmuir fit. In outline: as §1

Assay [5] has as its target T5, human SIRP-α v1 D1 domain (human, UniProt P78324 31-149).
T5 construct: also called human v1
The experiment in a line: SPR, Langmuir fit. In outline: as §1

Assay [6] deals with T6, C57BL/6 mouse SIRP-α D1 domain (mouse (C57BL/6 strain), UniProt P97797 32-148).
T6 sequence: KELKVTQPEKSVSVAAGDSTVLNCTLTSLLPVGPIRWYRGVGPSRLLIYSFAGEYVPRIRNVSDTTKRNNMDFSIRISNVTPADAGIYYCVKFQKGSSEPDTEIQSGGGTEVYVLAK
The experiment in a line: SPR. In outline: as §1

For assay [7], the target named is T7, human SIRP-α v2 D1 domain (human).
T7 construct: also called human v2
As to the kind of experiment: SPR. In outline:
as §1

Assay [8] deals with T8, mouse 129 SIRP-α D1 domain (mouse (129 strain), UniProt P97797 32-150).
T8 construct: also called m129
T8 chain: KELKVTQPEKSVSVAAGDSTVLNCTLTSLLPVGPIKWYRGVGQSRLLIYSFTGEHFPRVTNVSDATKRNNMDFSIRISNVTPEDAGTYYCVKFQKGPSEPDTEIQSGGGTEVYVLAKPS
The experiment in a line: SPR. In outline:
as §1

The target of assay [9] is T9, NOD mouse SIRP-α D1 domain (mouse (NOD strain)).
T9 chain: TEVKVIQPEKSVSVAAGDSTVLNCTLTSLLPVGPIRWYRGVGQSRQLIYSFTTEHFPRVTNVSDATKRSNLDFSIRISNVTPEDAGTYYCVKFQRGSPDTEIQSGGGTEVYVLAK
As to the kind of experiment: SPR. In outline: as §1

The target of assay [10] is T10, human SIRPβ isoform 1 (human, UniProt O00241 30-148).
T10 construct: also called sirpb1; Sirpb1
T10 sequence (O00241 30-148 limits assumed): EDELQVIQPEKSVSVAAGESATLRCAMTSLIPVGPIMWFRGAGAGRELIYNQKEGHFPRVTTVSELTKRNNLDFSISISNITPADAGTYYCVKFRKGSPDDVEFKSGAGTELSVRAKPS
As to the kind of experiment: SPR, captured scFv-Fc, 100 nM analyte.

Assay [11] addresses T11, cynomolgus SIRP-α D1 domain (SEQ ID NO:11) (cynomolgus, UniProt Q5TFQ8 30-148 (human entry), limits assumed).
T11 construct: also called cyno1
T11 chain: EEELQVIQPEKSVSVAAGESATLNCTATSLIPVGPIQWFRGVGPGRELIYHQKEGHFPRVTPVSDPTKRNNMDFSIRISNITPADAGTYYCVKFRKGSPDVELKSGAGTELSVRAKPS
As to the kind of experiment: SPR, captured scFv-Fc, 100 nM analyte.

For assay [12], the target named is T12, human SIRP-α v1 D1 domain (human, UniProt P78324 31-149).
T12 construct: also called human v1; human α v1
The experiment in a line: SPR, captured scFv-Fc, 100 nM analyte.

The target of assay [13] is T13, human SIRP-α v2 D1 domain (human).
T13 construct: also called human v2; human α v2
As to the kind of experiment: SPR, captured scFv-Fc, 100 nM analyte.

Assay [14] addresses T14, high affinity SIRP-α D1 variant CV1-3 (human).
T14 chain: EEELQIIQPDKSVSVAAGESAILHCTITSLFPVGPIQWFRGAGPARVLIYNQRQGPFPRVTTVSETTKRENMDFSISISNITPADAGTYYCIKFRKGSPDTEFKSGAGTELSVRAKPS
As to the kind of experiment: SPR, captured scFv-Fc, 100 nM analyte.

The target of assay [15] is T15, cynomolgus SIRP-α D1 domain (SEQ ID NO:12) (cynomolgus, UniProt Q5TFQ8 30-148 (human entry), limits assumed).
T15 construct: also called cyno2; Cyno2
T15 chain: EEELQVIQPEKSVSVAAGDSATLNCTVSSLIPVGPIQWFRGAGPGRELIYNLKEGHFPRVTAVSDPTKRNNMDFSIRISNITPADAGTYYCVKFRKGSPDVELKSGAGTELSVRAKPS
The experiment in a line: SPR, captured scFv-Fc, 100 nM analyte.

In assay [16] the target is T16, human SIRPγ isoform 1 (human, UniProt Q9P1W8 29-147).
T16 construct: also called sirpg; sirp-g
The experiment in a line: SPR, captured scFv-Fc, 100 nM analyte.

For assay [17], the target named is T17, mouse 129 SIRP-α D1 domain (mouse (129 strain), UniProt P97797 32-150).
T17 construct: also called m129
T17 chain: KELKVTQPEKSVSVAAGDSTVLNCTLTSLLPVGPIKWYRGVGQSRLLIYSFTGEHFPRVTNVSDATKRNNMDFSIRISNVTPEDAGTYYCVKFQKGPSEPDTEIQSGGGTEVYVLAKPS
The experiment in a line: SPR, captured scFv-Fc. In outline:
as §1

Assay [18] addresses T18, NOD mouse SIRP-α D1 domain (mouse (NOD strain)).
T18 chain: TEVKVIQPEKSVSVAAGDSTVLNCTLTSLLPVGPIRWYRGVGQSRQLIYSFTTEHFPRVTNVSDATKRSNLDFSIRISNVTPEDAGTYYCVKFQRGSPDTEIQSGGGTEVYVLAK
The experiment in a line: SPR, captured scFv-Fc, 100 nM analyte; LB = very low binding. As to the method: (§2) Binding of the antibody clones to various SIRP proteins was determined using surface plasmon resonance (SPR) detection on a ProteOn XPR36 instrument (Bio-Rad, Hercules, Calif.) using phosphate buffered saline (PBS, pH 7.4) supplemented with 0.01% Tween-20 (PBST) as running buffer. The pre-filtered media containing the secreted antibodies was used directly for the assay. First, anti-Human IgG Fc (BR-1008-39, GE Healthcare) was amine-coupled onto a GLC sensor chip to generate the capture surfaces for the antibodies. About 4000 RU per flow cell of immobilized anti-human IgG Fc is achieved. Each clone is screened using the same method as follows.
(§3) (1) ‥5-10 uL of pre-filtered media in 10 mM sodium acetate buffer (pH4.5) was injected for 2 mins at 30 ul/min;
(§4) The koff rates of binding of each clone to each SIRP analyte were determined using SPR (Table C). The SPR screening conditions have been described herein, and the Koff values were determined using Langmuir kinetic fittings. The CD47 blocking properties (block, non-block, kick-off) are described in the last column of the Table C. Each antibody is identified according to its corresponding SEQ ID NO. SIRP analyte sequences are as follows: CV1-3, SEQ ID NO:18; v1, SEQ ID NO:5; v2, SEQ ID NO:6; cyno1, SEQ ID NO:11; cyno2, SEQ ID NO:12; m129, SEQ ID NO:7; NOD, SEQ ID NO: 8; BL6, SEQ ID NO:9; sirpb1, SEQ ID NO:13; sirpg, SEQ ID NO:15.

For assay [19], the target named is T19, C57BL/6 mouse SIRP-α D1 domain (mouse (C57BL/6 strain), UniProt P97797 32-148).
T19 sequence: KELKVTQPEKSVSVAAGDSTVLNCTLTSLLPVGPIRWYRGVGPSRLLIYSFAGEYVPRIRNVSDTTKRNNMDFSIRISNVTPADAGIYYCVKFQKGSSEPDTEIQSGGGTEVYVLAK
The description is as above. The protocol: as §2, §3, §4

B1: S123 (scFv)
scFv: EIVLTQSPGTLSVSPGERVTLTCRASQGIAGKIAWYQQKPGQAPRLLIYDASSRATGIPGRFSGSGSGTEFTLTITSLQSEDFAVYYCQQHYDWSPLTFGGGTKVEIKGQSSRSSGGGGSSGGGGSDVQLVESGGGLVQPGGSLRLSCTASGFTFRNYGMSWVRQAPGEGLEWVSASSGSGSTYYTDSVKGRFTISRDNSKNTLYLQMNSLRAEDTAIYYCAKVTWNNFFDYWGLGTLVTVSSSL[letters of human IgG1 Fc with C220S (EU numbers) and a few adjoining residues left out]
In the case of B1, the koff is 0.00143 s⁻¹ in [1]; 0.00154 s⁻¹ in assay [2]; 0.00131 s⁻¹ in [3]; 0.00157 s⁻¹ in assay [4]; 0.00155 s⁻¹ in assay [5]. Further, the binding result in assay [6], in [7], in assay [8] and in assay [9] was “no binding (tested: Koff > 5 × 10^3 (legend))” throughout.

B2: S11 scFv-Fc (scFv)
scFv: AVTQPASVSANPGETVKITCSGSSSGSYGWYQQKSPGSAPVTLIYETNKRPSNIPSRFSGSKSGSTATLTITGVQADDEAVYYCGSEDSSTYLSIFGAGTTLTVLGQSSRSSGGGGSSGGGGSMAAVTLDESGGGLQTPGGALSLVCKASGFTFSSFNMGWVRQAPGKGLEFVAAIYSGNSAEYGAAVQGRATISRDNGQSTVRLQLNNLRAEDTGIYFCAKDAGSGCYSGVCAGTSSIDAWGHGTEVIVSSSL[letters of human IgG1 Fc with C220S K317E (EU numbers) and a few adjoining residues left out]
As to B2, the off-rate constant (koff) was 0.000159 s⁻¹ in [10]; 0.00111 s⁻¹ in assay [11]; 3.35e-05 s⁻¹ in assay [12]; 0.000186 s⁻¹ in assay [13]; 0.00269 s⁻¹ in assay [14]; 0.00392 s⁻¹ in [15]. In addition, the off-rate (koff) in [16] is 0.000386 s⁻¹. Further, the binding result is on record as “no binding (tested: 100 nM)” in assay [17], “binds” in [18] and “binds” in assay [19].
